The supplement of paper PMC5998384

Legend:
[1] = system: HeLa Kyoto; assay: solubility in G1/S (NP-40 vs SDS abundance) (log2 ratio); higher = more soluble; details: cell cycle stage: G1/S
[2] = system: HeLa Kyoto; assay: solubility change mitosis vs G1/S (difference of NP-40 vs SDS log2 ratios) (log2 ratio difference); higher = more soluble in mitosis
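Throughout, for solubility change mitosis vs G1/S (difference of NP-40 vs SDS log2 ratios): synchronized HeLa Kyoto cells (double thymidine block for G1/S, nocodazole release for mitosis), protein amounts in NP-40 versus SDS lysates quantified by mass spectrometry, three biological replicates.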
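Throughout, for solubility in G1/S (NP-40 vs SDS abundance): HeLa Kyoto cells arrested at G1/S by double thymidine block, proteins quantified by TMT10plex mass spectrometry in mild NP-40 versus SDS extracts, three biological replicates.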

MAEAGPQAPPPPGTPSRHEKSLGLLTTKFVSLLQEAKDGVLDLKLAADTLAVRQKRRIYDITNVLEGIGLIEKKSKNSIQWKGVGPGCNTREIADKLIELKAEIEELQQREQELDQHKVWVQQSIRNVTEDVQNSCLAYVTHEDICRCFAGDTLLAIRAPSGTSLEVPIPEGLNGQKKYQIHLKSVSGPIEVLLVNKEAWSSPPVAVPVPPPEDLLQSPSAVSTPPPLPKPALAQSQEASRPNSPQLTPTAVPGSAEVQGMAGPAAEITVSGGPGTDSKDSGELSSLPLGPTTLDTRPLQSSALLDSSSSSSSSSSSSSNSNSSSSSGPNPSTSFEPIKADPTGVLELPKELSEIFDPTRECMSSELLEELMSSEVFAPLLRLSPPPGDHDYIYNLDESEGVCDLFDVPVLNL [E2F4]
solubility in G1/S (log2) [1]: 0.164
solubility change mitosis (log2) [2]: -0.062
